Hit rate of the full screen: of about 220,000 compounds, about 2,300 (1%) were called active. Inconclusive results, whose numbers are uncertain, are shown with a selection of clear calls. The call rests on the fitted dose curve; in most records, active means well fitted inhibition curve with a large enough effect; inconclusive means small, poorly fitted or top-dose-only effect, or effect the other way; inactive means no such curve, though single readings can be large or run the other way. No potency is given beside an inconclusive call; the fits are too rough.
What follows are molecules tested against Neuropeptide S receptor (Homo sapiens) (UniProt Q6W5P4) (assay: qHTS Assay for Antagonists of the Neuropeptide S Receptor: cAMP Signal Transduction). Details: CHO-NPSR cells, cAMP TR-FRET, antagonist mode; series mostly up to 38.3 µM.
UniProt Q6W5P4, sequence (Q6W5P4 whole entry, looked up): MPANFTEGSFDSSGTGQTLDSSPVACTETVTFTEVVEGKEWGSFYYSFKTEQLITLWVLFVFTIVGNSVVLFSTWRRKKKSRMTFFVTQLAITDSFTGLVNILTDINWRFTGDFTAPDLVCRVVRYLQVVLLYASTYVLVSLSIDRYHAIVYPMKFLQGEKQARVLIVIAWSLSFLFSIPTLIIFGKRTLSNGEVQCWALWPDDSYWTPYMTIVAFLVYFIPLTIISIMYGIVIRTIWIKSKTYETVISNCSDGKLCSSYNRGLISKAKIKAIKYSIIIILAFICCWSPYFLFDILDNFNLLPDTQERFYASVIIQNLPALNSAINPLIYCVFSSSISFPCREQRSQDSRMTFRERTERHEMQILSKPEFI
Further: nearly all actives have a fitted effect of over 50% in size.
Potency means the concentration at half of the fitted maximal effect; tags describe the fitted curve by direction and shape.

Structure (SMILES)	Potency
COC(=O)c1cnn(-c2ccccc2)c1/C=N/NC(=S)Nc1ccccc1	inconclusive [activator, partial curve]
CN(C)S(=O)(=O)c1cccc(NC(=O)CN2C(=O)NC(CCc3ccccc3)C2=O)c1 (stereo unspecified)	inactive
CC(=O)Nc1ccc(S(=O)(=O)Nc2nc(C)cc(-n3nc(C)cc3C)n2)cc1	inconclusive [inhibitor, single point]
COc1cc(/C=C2/C(=O)ON=C2c2ccccc2)ccc1O	inconclusive [inhibitor, single point]
Cn1c(N=Nc2ccc(N3CCOCC3)cc2)[n+](C)c2ccccc21	active: 7.94 µM
CC(=O)c1c(C)cc(C)c(CSc2nnc(-c3ccco3)o2)c1C	inconclusive [inhibitor, partial curve]
COc1ccc(Sc2nc3ccccc3n3c(C(F)(F)F)nnc23)cc1	inconclusive [inhibitor, single point]
CC(C)Cn1c(SCc2nnc(-c3cccs3)o2)nc(O)cc1=O	inactive
CN(C)c1ccc(S(=O)(=O)NCC(=O)OCC(=O)Nc2cc(Cl)cc(Cl)c2)cc1[N+](=O)[O-]	inactive
COCCCn1c(=O)/c(=C\c2ccccc2OC(F)F)s/c1=C(/C#N)C(N)=O	inactive
CC(C)(C)C(=O)NC(Nc1cccc2cccnc12)C(Cl)(Cl)Cl (stereo unspecified)	inconclusive [inhibitor, single point]
Cc1ccc(C)c2sc(NC(=O)c3ccc(N4C(=O)CCC4=O)cc3)nc12	inconclusive [inhibitor, single point]
CC(C)(C)c1cc(NCCCn2ccnc2)n2ncc(-c3ccc(Cl)cc3)c2n1	inconclusive [inhibitor, single point]
CCCc1nc(SCC(=O)N2CCCc3ccccc32)c2c(=O)n(C)c(=O)n(C)c2n1	inconclusive [inhibitor, partial curve]
COc1cc2c(cc1OC)CN(Cc1ccc(C)s1)CC2	inactive
COc1ccccc1C1C(C(C)=O)=C(C)N=c2s/c(=C\c3cc(OC)c(OC)c(OC)c3)c(=O)n21 (stereo unspecified)	inactive
CCOC(=O)c1snc(-c2ccc(F)cc2)c1N	inconclusive [activator, partial curve, poor fit]
CCc1ccc(-c2cn3nc(C)c(C)nc3n2)cc1	inactive
CCC(C)Oc1nc2ccccc2nc1NS(=O)(=O)c1ccccc1 (stereo unspecified)	inconclusive [inhibitor, single point]
CC(C)C(=O)NC(c1cccs1)c1cc([N+](=O)[O-])c2cccnc2c1O (stereo unspecified)	inactive
C[N+](C)(C)c1ccc(/C=N/Nc2nc(Cl)c(C#N)c(Cl)c2Cl)cc1	inconclusive [inhibitor, single point]
CC(C)C1Cc2[nH]c(=O)c(C(=O)O)cc2CO1 (stereo unspecified)	inactive
O=C(Nc1ccc(F)c(Cl)c1)N1CCCC1	inactive
O=C(CSc1nnnn1Cc1ccccc1)Nc1ccc2c(c1)OCO2	inactive

Structure (SMILES)	Potency
O=C(Nc1ccc(N2CCCC2)c(Cl)c1)c1cccnc1	inactive
CCOc1nc(SCCOc2ccc(C)cc2)nc(N(C)C)n1	inconclusive [inhibitor, partial curve]
O=C(NNc1ccc(C2CCCCC2)cc1)C(O)(c1ccccc1)c1cccs1 (stereo unspecified)	inconclusive [inhibitor, single point]
Cn1c(SCc2nnc(-c3ccccc3)o2)nc2ccccc21	inactive
CCOc1ccc2nc(NC(=O)c3ccccn3)sc2c1	inconclusive [inhibitor, single point]
O=C(O)c1ccc(N=Nc2c(O)[nH]c3ccccc23)cc1	inconclusive [activator, partial curve]
CCCN1C(=O)/C(=C/c2c(N3CCNC(=O)C3CC(=O)OCC)nc3c(C)cccn3c2=O)SC1=S (stereo unspecified)	active: 12.6 µM
O=C(O)c1cccnc1Sc1ncnc2sc3c(c12)CCC3	inactive
CC1=NN2C(=N)/C(=C\c3cc(C)n(-c4ccc(C)cc4)c3C)C(=O)N=C2S1	active: 12.6 µM
CCC1=NN2C(=N)/C(=C\c3cccn3-c3ccc(Br)cc3)C(=O)N=C2S1	inactive
COCCCNC(=S)N(Cc1ccccc1)Cc1ccccc1	inconclusive [inhibitor, single point]
COc1ccc2c(c1)c(CC(=O)O)c(C)n2C(=O)c1ccccc1	inconclusive [inhibitor, single point]
COc1ccc(CCn2c(N)c(S(=O)(=O)c3cccs3)c3nc4ccccc4nc32)cc1OC	inconclusive [inhibitor, single point]
N#CC1=C(N)C(C#N)(C#N)C(c2ccncc2)C2CN(C(=O)OCc3ccccc3)CC=C12 (stereo unspecified)	active: 3.98 µM
O=c1[nH]c2cc3c(cc2cc1C(c1nnnn1Cc1ccccc1)N1CCCCCC1)OCCO3 (stereo unspecified)	inconclusive [inhibitor, partial curve]
CCOC(=O)N1CCC(NC(=O)CC(NS(=O)(=O)c2ccc(Cl)cc2)c2ccco2)CC1 (stereo unspecified)	inactive
O=C(NCC1CCCO1)c1cc(-c2ccccc2)on1 (stereo unspecified)	inactive
COc1ccc(N2CCN(C(=O)CC(NC(N)=O)c3cccc(Oc4ccccc4)c3)CC2)cc1 (stereo unspecified)	inconclusive [inhibitor, single point]
COCCN1CSC(=S)N(Cc2ccco2)C1	inconclusive [inhibitor, full curve, poor fit]
CCOC(=O)CSc1nc2c(sc(=S)n2Cc2ccco2)c(=O)n1-c1ccccc1	inconclusive [inhibitor, single point]
Cc1cccc(Cl)c1NC(=O)N1CCCN(c2nc3ccc(Cl)cc3s2)CC1	inconclusive [activator, single point]
COc1ccc(N=C2SCC(c3ccc([N+](=O)[O-])cc3)=NN2CCO)cc1	inactive
CC(=O)c1sc(NC(=O)COc2ccc(C(C)C)c(C)c2)nc1C	inconclusive [inhibitor, single point]
Cc1cccc(C(=O)O/N=C2/CC3CCC2(C)C3(C)C)c1 (stereo unspecified)	inconclusive [inhibitor, single point]

Structure (SMILES)	Potency
CNC(=S)N1N=C(c2ccc(OC)cc2)CC1c1ccc(Cl)cc1Cl (stereo unspecified)	inconclusive [activator, partial curve]
O=C(COC(=O)c1ccccc1OCc1ccc(Cl)cc1)NC1CC1	inconclusive [inhibitor, single point]
O=C(NC(=S)Nc1ccc(Cl)cn1)C12CC3CC(CC(C3)C1)C2	inconclusive [inhibitor, single point]
CCC(C)NC(=O)CSc1nnc(-c2c[nH]c3ccccc23)o1 (stereo unspecified)	inactive
C/C(N)=C(/C#N)C(=O)COC(=O)c1cc(-c2ccccc2)nc2ccc(Br)cc12	inconclusive [inhibitor, single point]
COc1cc([C@@H]2c3cc4c(cc3[C@@H](O)[C@H]3COC(=O)[C@H]23)OCO4)cc(OC)c1O[Si](C)(C)C(C)(C)C	active: 10 µM
CC(=O)c1ccc(N2CCN(C(=O)c3ccc4c(=O)n(-c5ccccc5)c(=O)[nH]c4c3)CC2)cc1	inactive
COc1ccccc1Nc1ncccc1C(=O)NCc1ccccc1	inconclusive [inhibitor, single point]
CCC(C)/C(C)=N/NC(=O)c1ccccc1OCCOc1ccccc1 (stereo unspecified)	inconclusive [inhibitor, single point]
COc1ccc(CCNC(=O)Cn2c(-c3nonc3N)nc3ccccc32)cc1OC	inconclusive [inhibitor, partial curve]
Cc1cc(C(=O)N2CCN(c3ncccn3)CC2)cs1	inconclusive [inhibitor, single point]
O=C1OC(c2ccccc2)c2ccccc21 (stereo unspecified)	inactive
Cc1ccc(CNCC2CCCO2)s1 (stereo unspecified)	inactive
N#CC1=C2SCN(Cc3ccccc3)CN2C(=O)CC1c1cccs1 (stereo unspecified)	inconclusive [activator, partial curve]
COc1cc2c(cc1NC(=O)CSc1nnc(COc3ccc(Cl)cc3)n1C)oc1ccccc12	inconclusive [inhibitor, partial curve]
COc1ccc2c(c1OC)C(=O)OC2CC(=O)c1ccc(O)cc1 (stereo unspecified)	inconclusive [inhibitor, partial curve, poor fit]
Cc1c(Cl)ccc2c(C(=O)NCCN3CCCCC3)cc(-c3ccccn3)nc12	inconclusive [inhibitor, single point]
Cc1c(NC(=O)C(C)OC(=O)C(NC(=O)c2ccco2)C(C)C)c(=O)n(-c2ccccc2)n1C (stereo unspecified)	inconclusive [activator, partial curve, poor fit]
Cn1c(N2CCCCC2)nc2c1c(=O)[nH]c(=O)n2C	inconclusive [inhibitor, single point]
CCOC(=O)c1cnc2cc(Cl)c(OC)cc2c1NCC1CCCO1 (stereo unspecified)	inconclusive [inhibitor, partial curve]
O/N=C/c1ccnc(SCc2ccc(Cl)cc2)n1	inconclusive [activator, full curve]
CC(C)NC(=O)COC(=O)Cn1[nH]c(=O)c2ccccc2c1=O	inactive
Cc1ccc(S(=O)(=O)NCCSc2nnnn2-c2cc(C)ccc2C)cc1	inconclusive [inhibitor, partial curve]
